Drawing on the supplement of paper PMC10369915, this text covers enrichment score for 18 molecules.

The labels stand for the following.
B1: ALB_Y394_D399N (peptide)
chain: DPHECYAKVFN
B2: ALDOA_Y138 (peptide)
chain: ERCAQYKKDGA
B3: ALDH5A1_Y175_G176R (peptide)
chain: EARRVYRDIIH
B4: ALB_Y287_Q292R (peptide)
chain: ADLAKYICENR
B5: ALDH3B2_Y365_H361R_YF (peptide)
chain: IRFPPYTDWNQ
B6: ALB_Y377_E382K (peptide)
chain: RLAKTYETTLK
B7: ALDOA_Y343_G347S (peptide)
chain: ACQGKYTPSSQ
B8: ALDH2_Y332_E337V (peptide)
chain: VQEDIYDEFVV
B9: ALDOA_Y204 (peptide)
chain: LKRCQYVTEKV
B10: ALDH2_Y497_E496K_YF (peptide)
chain: RELGKYGLQAF
B11: ALDH2_Y497_E496K (peptide)
chain: RELGKYGLQAY
B12: ALDH5A1_Y175_H180Y_YF (peptide)
chain: EARRVYGDIIF
B13: ALB_Y394_D389H (peptide)
chain: HPHECYAKVFD
B14: ALDH3B2_Y365_YF (peptide)
chain: IHFPPYTDWNQ
B15: ALDH3B2_Y365_H361R (peptide)
chain: IRYPPYTDWNQ
B16: ALDH3A1_Y272_E270A (peptide)
chain: SLKAFYGEDAK
B17: ALDOA_Y343 (peptide)
chain: ACQGKYTPSGQ
B18: ALDOA_Y204_E207K (peptide)
chain: LKRCQYVTKKV

The other results are listed elsewhere or left out. No stated cut-off is given here; in the data, active = 3.2 or more and inactive = the rest. The signal is at background level for most entries.
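Further: displayed peptides selected on beads carrying the immobilized SH2 domain, with library peptides lacking any tyrosine serving as negative controls.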

The first assay has as its target SHP2 C-SH2 domain E139D. The experiment in a line: enrichment score (SH2-bound / input frequency) (ratio); bacterial display of known human phosphotyrosine sites (pTyr-Var adds point mutants) read by sequencing; higher = stronger binding; tyrosines were phosphorylated by kinases first. To be noted: peptide library: pTyr-Var.
In the case of B1, the enrichment score was inactive: 0.594.

In the case of B2, the enrichment score is inactive: 0.797.

On to B3, for which the enrichment score was inactive: 0.926.

In the case of B4, the enrichment score was inactive: 0.941.

Consider B5, for which the enrichment score is inactive: 1.42.

Consider B6, for which the enrichment score was inactive: 0.6.

As for B7, the enrichment score was inactive: 0.742.

As to B8, the enrichment score was inactive: 0.535.

B9: the enrichment score was inactive: 0.606.

In the case of B10, the enrichment score was inactive: 0.741.

As to B11, the enrichment score was inactive: 0.539.

For B12, the enrichment score was inactive: 0.871.

As for B13, the enrichment score is inactive: 1.34.

For B14, the enrichment score is inactive: 1.19.

Turning to B15, the enrichment score was inactive: 1.01.

For the molecule B16, the enrichment score was inactive: 0.734.

In the case of B17, the enrichment score was inactive: 0.837.

Consider B18, for which the enrichment score was inactive: 0.455.

Another assay concerns the target SHP2 C-SH2 domain wild-type. Described as above. To be noted: peptide library: pTyr-Var.
With B1, the enrichment score was inactive: 1.03.

As to B2, the enrichment score is inactive: 0.721.

As to B3, the enrichment score was inactive: 0.68.

Take B4: the enrichment score was inactive: 0.878.

With B5, the enrichment score was inactive: 0.987.

With B6, the enrichment score is inactive: 0.77.

As to B7, the enrichment score is inactive: 0.649.

Regarding B8, the enrichment score is inactive: 0.689.

With B9, the enrichment score is inactive: 0.829.

Turning to B10, the enrichment score was inactive: 0.823.

For the molecule B11, the enrichment score is inactive: 0.896.

Take B12: the enrichment score was inactive: 1.08.

Turning to B13, the enrichment score is inactive: 1.93.

Turning to B14, the enrichment score is inactive: 1.05.

B15: the enrichment score was inactive: 0.749.

In the case of B16, the enrichment score is inactive: 0.577.

B17: the enrichment score is inactive: 0.689.

Turning to B18, the enrichment score is inactive: 0.365.

Another assay addresses SHP2 N-SH2 domain L43F. The assay is described as above. Conditions: peptide library: pTyr-Var.
With B1, the enrichment score is inactive: 0.63.

For B2, the enrichment score is inactive: 0.766.

On to B3, for which the enrichment score was inactive: 0.667.

Consider B4, for which the enrichment score is inactive: 0.834.

Consider B5, for which the enrichment score is inactive: 1.06.

As to B6, the enrichment score is inactive: 0.696.

In the case of B7, the enrichment score was inactive: 0.725.

Turning to B8, the enrichment score is inactive: 0.686.

Regarding B9, the enrichment score was inactive: 0.86.

Consider B10, for which the enrichment score is inactive: 0.678.

B11: the enrichment score is inactive: 0.565.

As for B12, the enrichment score was inactive: 0.849.

Take B13: the enrichment score is inactive: 2.02.

As to B14, the enrichment score was inactive: 1.34.

For the molecule B15, the enrichment score is inactive: 0.921.

For B16, the enrichment score was inactive: 0.893.

For B17, the enrichment score was inactive: 0.614.

Take B18: the enrichment score was inactive: 0.492.

The target of another assay is SHP2 N-SH2 domain T42A. The assay is described as above. Conditions: peptide library: pTyr-Var.
With B1, the enrichment score was inactive: 0.608.

For the molecule B2, the enrichment score is inactive: 0.713.

Consider B3, for which the enrichment score is inactive: 0.717.

Turning to B4, the enrichment score was inactive: 0.702.

Take B5: the enrichment score was inactive: 1.01.

Take B6: the enrichment score was inactive: 0.388.

Turning to B7, the enrichment score was inactive: 0.67.

For the molecule B8, the enrichment score is inactive: 0.613.

As to B9, the enrichment score was inactive: 0.615.

Turning to B10, the enrichment score is inactive: 0.679.

As to B11, the enrichment score was inactive: 0.692.

On to B12, for which the enrichment score is inactive: 1.13.

Regarding B13, the enrichment score was inactive: 1.76.

As for B14, the enrichment score was inactive: 1.22.

Take B15: the enrichment score is inactive: 0.756.

With B16, the enrichment score is inactive: 0.608.

As for B17, the enrichment score was inactive: 0.574.

In the case of B18, the enrichment score is inactive: 0.519.

The target in a further assay is SHP2 N-SH2 domain T52S. Described as above. Conditions: peptide library: pTyr-Var.
As to B1, the enrichment score was inactive: 0.67.

In the case of B2, the enrichment score is inactive: 0.564.

With B3, the enrichment score is inactive: 0.866.

As to B4, the enrichment score is inactive: 0.739.

Regarding B5, the enrichment score is inactive: 1.39.

B6: the enrichment score is inactive: 0.674.

Regarding B7, the enrichment score was inactive: 0.726.

As for B8, the enrichment score was inactive: 0.807.

Regarding B9, the enrichment score was inactive: 0.63.

Consider B10, for which the enrichment score is inactive: 0.829.

In the case of B11, the enrichment score was inactive: 0.684.

For the molecule B12, the enrichment score is inactive: 1.

Turning to B13, the enrichment score is inactive: 1.8.

For the molecule B14, the enrichment score was inactive: 1.33.

Regarding B15, the enrichment score is inactive: 0.805.

As for B16, the enrichment score is inactive: 0.671.

B17: the enrichment score was inactive: 0.686.

Turning to B18, the enrichment score was inactive: 0.375.

The target of another assay is SHP2 N-SH2 domain wild-type. Described as above. Conditions: peptide library: pTyr-Var.
For B1, the enrichment score was inactive: 0.726.

Regarding B2, the enrichment score was inactive: 0.676.

For the molecule B3, the enrichment score is inactive: 0.726.

B4: the enrichment score was inactive: 1.04.

Take B5: the enrichment score is inactive: 1.14.

For the molecule B6, the enrichment score was inactive: 0.722.

For B7, the enrichment score was inactive: 0.646.

B8: the enrichment score is inactive: 0.852.

On to B9, for which the enrichment score was inactive: 0.695.

In the case of B10, the enrichment score was inactive: 0.902.

As for B11, the enrichment score is inactive: 0.796.

On to B12, for which the enrichment score was inactive: 0.972.

Turning to B13, the enrichment score was inactive: 1.56.

As to B14, the enrichment score was inactive: 1.04.

Consider B15, for which the enrichment score was inactive: 0.714.

On to B16, for which the enrichment score is inactive: 0.806.

Regarding B17, the enrichment score is inactive: 0.759.

With B18, the enrichment score was inactive: 0.49.
